Laboratory results as given in PubChem BioAssay (NCATS).
Inconclusive results, whose numbers are uncertain, are shown with a selection of clear calls. Potencies of inconclusive entries are doubtful fits and often do not repeat. Calls of active or inactive are those of the source. The call rests on the fitted dose curve; in most records, active means well fitted curve in the direction sought with a large enough effect; inconclusive means small, poorly fitted or top-dose-only effect, or another doubt; inactive means no such curve, though single readings can be large; an effect the other way counts as inactive or inconclusive.

Legend:
[1] = qHTS of pediatric cancer cell lines to identify multiple opportunities for drug repurposing: Primary screen for BT-37 cells (AID 1347094)
In short: (§1)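 Luminescence from CellTiter-Glo served as readout of metabolically active cells after 48 h compound exposure. Titrations: MIPE 11-point, from 0.78 nM; NPC 8-point, from 0.59 nM (final). Concentration-response curves came straight from the primary screen.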

[2] = qHTS of pediatric cancer cell lines to identify multiple opportunities for drug repurposing: Primary screen for Saos-2 cells (AID 1347097); conditions: Saos-2 viability, CellTiter-Glo ATP luminescence, 48 h; activity change, negative = cytotoxic: at 46 µM (top of the series) unless noted; further: nearly all actives have a fitted effect of over 40% in size
In short: as §1

[3] = qHTS of pediatric cancer cell lines to identify multiple opportunities for drug repurposing: Primary screen for BT-12 cells (AID 1347101); further: nearly all actives have a fitted effect of over 25% in size
In short: (§2)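 Cells (500-1,000/well) rested 5 h, then received compounds for 48 h; metabolically active cells were measured by CellTiter-Glo luminescence. Final concentrations spanned up to 46 µM (MIPE, 11-point) or 0.59 nM-46 µM (NPC, 8-point) in primary screens, 11-point in follow-ups.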

[4] = qHTS of pediatric cancer cell lines to identify multiple opportunities for drug repurposing: Primary screen for U-2 OS cells (AID 1347096); further: nearly all actives have a fitted effect of over 50% in size
In short: (§3)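 Cells (500-1,000/well) in growth media were settled 5 h at 37 degrees C, then given compounds for 48 h. Viability was read as CellTiter-Glo luminescence. Primary runs used MIPE at 11 points (0.78 nM-46 µM) and NPC at 8 points (0.59 nM-46 µM); follow-ups used 11 points.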

[5] = qHTS of pediatric cancer cell lines to identify multiple opportunities for drug repurposing: Primary screen for NB1643 cells (AID 1347099); further: nearly all actives have a fitted effect of over 50% in size
In short: as §1

[6] = qHTS of pediatric cancer cell lines to identify multiple opportunities for drug repurposing: Primary screen for LAN-5 cells (AID 1347100); conditions: LAN-5 neuroblastoma viability, CellTiter-Glo luminescence, 48 h; activity change, negative = cytotoxic: at 46 µM (top of the series) unless noted
In short: as §3

[7] = qHTS of pediatric cancer cell lines to identify multiple opportunities for drug repurposing: Primary screen for Rh18 cells (AID 1347102); further: nearly all actives have a fitted effect of over 65% in size
In short: as §3

[8] = qHTS of pediatric cancer cell lines to identify multiple opportunities for drug repurposing: Primary screen for SK-N-SH cells (AID 1347098); conditions: SK-N-SH viability, CellTiter-Glo luminescence, 48 h; activity change, negative = cytotoxic: at 57 µM (top of the series) unless noted; further: nearly all actives have a fitted effect of over 65% in size
In short: as §2
Potency means the concentration at half of the fitted maximal effect; tags describe the fitted curve by direction and shape.

| SMILES | Potency [1] | Potency [2] | Potency [3] | Potency [4] | Potency [5] | Potency [6] | Potency [7] | Potency [8] |
| --- | --- | --- | --- | --- | --- | --- | --- | --- |
| O=C(CCCN1CCC2(CC1)C(=O)NCN2c1ccccc1)c1ccc(F)cc1 | inconclusive: 27.6 µM [cytotoxic, partial curve] | inconclusive: 26.6 µM [cytotoxic, single point] | inconclusive: 17.4 µM [cytotoxic, partial curve] |  |  |  |  |  |
| C[C@]12CCC(=O)C=C1CC[C@@H]1[C@@H]2CC[C@]2(C)C(=O)CC[C@@H]12 | inactive | inactive |  |  |  |  |  |  |
| COC[C@H]1OC(=O)c2coc3c2[C@@]1(C)C1=C(C3=O)[C@@H]2CC[C@H](O)[C@@]2(C)C[C@@H]1OC(C)=O | active: 6.85 µM | active: 2.09 µM | inconclusive: 19.3 µM [cytotoxic, partial curve] | inconclusive: 18.7 µM [cytotoxic, single point] | inconclusive: 9.35 µM [cytotoxic, partial curve, poor fit] | active: 2.64 µM | active: 4.69 µM |  |
| CCCC1CCCCN1 (centres undefined) | inactive | inactive |  |  | inactive |  |  |  |
| CCC(C)(C)c1ccc(O)cc1 | inactive | inactive |  |  |  | inactive |  |  |
| NNc1ccccc1 | inactive | inactive |  |  |  | inconclusive: 33.5 µM [cytotoxic, single point] | inactive |  |
| CC(C)N[C@@H]1CCn2c(=O)[nH]c3cccc(c32)[C@@H]1O | active: 27.3 µM | active: 5.26 µM | active: 3.06 µM | active: 11.8 µM | active: 4.18 µM | active: 0.743 µM | active: 4.69 µM |  |
| CC(C)[C@]12O[C@@H]1[C@@H]1O[C@]13[C@]1(O[C@H]1C[C@@H]1C4=C(CC[C@@]13C)C(=O)OC4)[C@H]2O | active: 0.001 µM |  |  | active: 0.001 µM |  |  | inconclusive: 0.0074 µM [cytotoxic, full curve] | inconclusive: 0.0043 µM [cytotoxic, full curve, poor fit] |
| CO/C=C(/C(=O)OC)c1ccccc1Oc1cc(Oc2ccccc2C#N)ncn1 | inconclusive: 14.2 µM [cytotoxic, full curve] | inconclusive: 43.3 µM [cytotoxic, partial curve] | active: 8.93 µM | inconclusive: 30.6 µM [cytotoxic, partial curve] | inconclusive: 38.6 µM [cytotoxic, partial curve] | active: 21.7 µM | inconclusive: 21.7 µM [cytotoxic, partial curve] |  |
| CC(C)[C@H]1C(=O)N[C@H](CO)Cc2c[nH]c3cccc(c23)N1C | inactive | inconclusive: 0.662 µM [cytotoxic, full curve] | inactive |  |  | inconclusive: 1.87 µM [cytotoxic, full curve] | inactive |  |
| C=CCC1=C(C)C(OC(=O)C2C(C=C(C)C)C2(C)C)CC1=O (centres undefined) | inconclusive: 31.7 µM [cytotoxic, partial curve, poor fit] | inconclusive: 38.6 µM [cytotoxic, single point] |  | inconclusive: 30.6 µM [cytotoxic, partial curve, poor fit] | inconclusive: 0.0109 µM [cytotoxic, full curve] | inconclusive: 68.6 µM [cytotoxic, single point] |  |  |
| COP(=O)(OC)OC=C(Cl)Cl | inactive | inactive |  | inactive | inactive |  |  |  |
| CN1[C@@H]2CC[C@H]1CC(OC(=O)c1cc(Cl)cc(Cl)c1)C2 (some centres undefined) | inconclusive: 0.11 µM [cytotoxic, full curve] | active: 75 µM | inactive | inactive | active: 0.001 µM | inconclusive: 10.6 µM [cytotoxic, single point] | inactive | inconclusive: 43.3 µM [cytotoxic, single point] |
| O=C(NC(O)C(Cl)(Cl)Cl)NC(O)C(Cl)(Cl)Cl (centres undefined) | inactive |  |  |  |  |  |  | inconclusive: 8.64 µM [cytotoxic, partial curve, poor fit] |
| CCC(OC(C)=O)C(CC(C)NC)(c1ccccc1)c1ccccc1 (centres undefined) | active: 35.9 µM |  | active: 35.9 µM | inconclusive: 27.6 µM [cytotoxic, partial curve, poor fit] | inconclusive: 77.8 µM [cytotoxic, single point] |  |  | inconclusive: 44.8 µM [cytotoxic, single point] |
